# ± gives the standard deviation of the averaged measurements. In all, about 33,000 sequences were measured (“E-score (dimensionless, -0.5 to 0.5)”: median about -0.049, highest 2% from about 0.37 on). Some of the results follow.
# System: T1, PmTbr T-box DNA-binding domain (GST fusion)
# T1 sequence: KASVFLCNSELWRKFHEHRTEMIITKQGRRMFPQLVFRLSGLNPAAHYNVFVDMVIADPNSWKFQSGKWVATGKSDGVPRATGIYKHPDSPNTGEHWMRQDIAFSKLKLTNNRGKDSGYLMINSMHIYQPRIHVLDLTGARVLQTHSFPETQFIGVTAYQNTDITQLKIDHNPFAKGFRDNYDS
# Test: PBM E-score of 8-mer (E-score (dimensionless, -0.5 to 0.5)); Tbr is Tbrain of the sea star Patiria miniata (Pm) or the sea urchin Strongylocentrotus purpuratus (Sp); higher = stronger binding preference; most listed sequences are background and not binding sites
# Conditions: the construct has about 5 more residues each side
# In short: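 Expression of GST-fused Tbr T-box DNA-binding domains, each holding the full T-box plus roughly five flanking residues, was carried out in BL21 E. coli at 20 °C, with purification by glutathione affinity chromatography. Universal Agilent arrays made double-stranded by primer extension were incubated with the protein at 200 nM in PBS (pH 7.5), then scanned and quantified. All ungapped 8-mers were scored from probe intensities, and each received an enrichment E-score from the Universal PBM Analysis Suite, averaged over duplicate arrays.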
row,Sequence,PBM E-score of 8-mer
1,TAGCGATA,0.0784 ± 0.028
2,AACCATGA,-0.158 ± 0.067
3,CAGGTTAC,0.0929 ± 0.012
4,ATCCAACG,0.073 ± 0.08
5,AATGCATT,-0.179 ± 0.036
6,AAGGAAAC,-0.0735 ± 0.021
7,ACCCAGTG,-0.006 ± 0.002
8,GACGGGAC,0.0433 ± 0.035
9,GAATCCAA,-0.196 ± 0.0059
10,ACACACTA,0.139 ± 0.024
11,ATGTCCGA,-0.194 ± 0.043
12,AGTGGACC,-0.1763 ± 0.0016
13,AATGGGGC,-0.0789 ± 0.075
14,CAGGGATG,-0.0936 ± 0.059
15,CTGTAACC,-0.0689 ± 0.0016
16,CGATTTAA,-0.0602 ± 0.0088
17,CATTAAAC,-0.157 ± 0.051
18,GCTCTCCC,-0.302 ± 0.035
19,AAAATATT,-0.0443 ± 0.025
20,AAAGCATG,-0.0507 ± 0.012
21,CCGGGAAA,0.188 ± 0.077
22,ATTATGCA,-0.228 ± 0.023
23,GGGAGGGA,-0.195 ± 0.056
24,CATAAATC,-0.0662 ± 0.0033
25,GATTTGGA,0.00012 ± 0.018

row,Sequence,PBM E-score of 8-mer
1,GAGTAACA,0.152 ± 0.041
2,ATCTTCTA,-0.0827 ± 0.079
3,AAGGGTCA,-0.0911 ± 0.0054
4,ACGGAAGC,-0.177 ± 0.081
5,CACCCTGC,0.246 ± 0.059
6,GCATTCCC,-0.058 ± 0.03
7,TACCTCAA,-0.132 ± 0.028
8,CGCCAGCG,0.188 ± 0.011
9,AAGGTTTA,-0.14 ± 0.076
10,TTGTGAAA,0.344 ± 0.027
11,ACATGATC,0.0023 ± 0.0017
12,ATATTCCC,-0.0661 ± 0.016
13,GAATTGCC,0.0509 ± 0.048
14,ACATACCC,-0.191 ± 0.11
15,GCAAAGGA,-0.229 ± 0.021
16,ATCAACTA,-0.00773 ± 0.015
17,CAAGAGGA,0.00872 ± 0.06
18,AAAGCAGA,-0.068 ± 0.082
19,GACCAACC,-0.166 ± 0.0031
20,GTCACCTA,0.4173 ± 0.0026
21,GTCAGTCA,-0.0381 ± 0.0097
22,CTGTATAC,0.00361 ± 0.024
23,ACGATTGC,0.0801 ± 0.0089
24,ACTTAATC,-0.0608 ± 0.043
25,GGCATCAC,0.196 ± 0.028

row,Sequence,PBM E-score of 8-mer
1,GGTATCAC,0.318 ± 0.041
2,ACAGATAC,-0.0952 ± 0.059
3,GTACAGCA,-0.0813 ± 0.032
4,ATACACAT,0.0509 ± 0.064
5,AGCCTAGG,-0.164 ± 0.016
6,AATTCGGT,-0.248 ± 0.0088
7,ACCTTAAA,0.0121 ± 0.081
8,AGGTTTTC,-0.154 ± 0.083
9,GAATAATA,-0.234 ± 0.075
10,ACAAGGAT,-0.187 ± 0.017
11,GACGGTTA,-0.0437 ± 0.029
12,CTGGTGAA,-0.00191 ± 0.054
13,CTACGTAC,-0.123 ± 0.039
14,ACGGAACC,-0.0495 ± 0.058
15,CATTATCG,0.08453 ± 0.00072
16,ATCGGTCA,-0.143 ± 0.039
17,ATAAAAAG,0.00899 ± 0.013
18,GGGAATAA,-0.129 ± 0.002
19,AAAGCGAC,0.116 ± 0.019
20,CCTATACA,-0.193 ± 0.089
21,CCATCGCC,0.0863 ± 0.027
22,CACGGTGC,0.189 ± 0.018
23,ACGACCCG,0.102 ± 0.046
24,ACGGGGGA,-0.245 ± 0.059
25,GGATTTGA,-0.183 ± 0.035

row,Sequence,PBM E-score of 8-mer
1,CGTCCCCA,-0.0881 ± 0.11
2,CCGCTATC,0.177 ± 0.0022
3,CTCTGCAC,0.137 ± 0.033
4,AAAGCACT,-0.0471 ± 0.0091
5,AATACGCC,-0.153 ± 0.045
6,GCTGGCCC,-0.192 ± 0.046
7,CTTTACAC,0.323 ± 0.039
8,AAGCGTCC,-0.169 ± 0.057
9,CAGCAGAG,-0.00019 ± 0.033
10,AGATATGC,-0.0212 ± 0.079
11,AAAAGTCA,-0.156 ± 0.0066
12,CGCTAAAG,0.296 ± 0.022
13,AAGGTACA,-0.288 ± 0.034
14,ACTTGTGC,-0.0472 ± 0.024
15,CAAAGAGA,-0.0887 ± 0.031
16,AAATCCTC,-0.274 ± 0.054
17,ATAACTCC,-0.168 ± 0.022
18,TCGTTGAA,-0.0542 ± 0.038
19,CATATACA,0.047 ± 0.0093
20,CTAGGTAC,-0.0188 ± 0.026
21,ACCGAGCT,-0.161 ± 0.027
22,GGATGCCC,-0.0684 ± 0.075
23,CATCCCAG,-0.0209 ± 0.0098
24,ATGGTCAA,-0.0586 ± 0.057
25,CGCAGACA,0.101 ± 0.039

row,Sequence,PBM E-score of 8-mer
1,CATAGTGA,0.149 ± 0.0089
2,ATATTCCA,-0.146 ± 0.036
3,CTGCACCC,-0.036 ± 0.0066
4,CTATTTTC,0.0583 ± 0.037
5,ATGACGGC,0.0072 ± 0.031
6,CGAGGAAA,-0.11 ± 0.12
7,GCGCTGAC,0.122 ± 0.077
8,CTAATTCC,-0.11 ± 0.034
9,AGGCGCAT,-0.116 ± 0.052
10,AGTCACGG,-0.168 ± 0.063
11,CACACGCC,0.258 ± 0.031
12,CGCTTTGC,-0.129 ± 0.036
13,GTCTTCTA,-0.183 ± 0.04
14,CAAGCGCG,0.192 ± 0.0043
15,AGAAAGGG,-0.248 ± 0.041
16,GGCTAATA,-0.326 ± 0.0039
17,ACAAGCTG,-0.0569 ± 0.1
18,CGAGATCC,0.0268 ± 0.01
19,AGGAGGTG,0.428 ± 0.0078
20,ATCGAGAA,0.0149 ± 0.02
21,CACCTAAA,0.368 ± 0.0085
22,AAGCAGTA,-0.258 ± 0.0043
23,CATGGTCA,-0.0583 ± 0.024
24,GCGTAGCC,-0.2639 ± 0.0012
25,CTGGCCGA,-0.272 ± 0.051

row,Sequence,PBM E-score of 8-mer
1,ACAATGGC,-0.0751 ± 0.008
2,GTACTGAA,-0.0918 ± 0.062
3,CGGATCCC,-0.097 ± 0.024
4,AGACTTGC,0.249 ± 0.011
5,CTGGCAGC,0.118 ± 0.11
6,ACGCGTCC,0.0939 ± 0.031
7,AGCATTTA,0.132 ± 0.0024
8,GATTACCC,-0.178 ± 0.028
9,GATAGGCC,-0.144 ± 0.074
10,CAAAATCG,0.0992 ± 0.026
11,ACGTCCCG,-0.0297 ± 0.056
12,GACCCGAA,0.153 ± 0.094
13,CCTAAGGC,-0.16 ± 0.022
14,GCGAGACA,0.153 ± 0.038
15,CAATCATC,0.0678 ± 0.054
16,AGTTCTGG,-0.166 ± 0.044
17,ACCATGCA,-0.124 ± 0.067
18,CAATCATG,0.00721 ± 0.038
19,GATTCGCA,0.361 ± 0.02
20,ACCGCCAT,-0.0231 ± 0.013
21,AAGCCCAC,-0.107 ± 0.033
22,CTTCGCCA,0.205 ± 0.017
23,CAATAATA,-0.0437 ± 0.071
24,CCCAAACC,-0.29 ± 0.041
25,CAGCCTTA,-0.125 ± 0.016

row,Sequence,PBM E-score of 8-mer
1,AAGTGGAA,-0.00496 ± 0.029
2,CGAACCTC,0.0092 ± 0.063
3,ACTGGGCC,-0.326 ± 0.025
4,AACGGTGC,0.229 ± 0.035
5,AGCACCGC,0.0529 ± 0.038
6,AGCTGAAG,-0.169 ± 0.022
7,TAGAAGCA,-0.118 ± 0.037
8,AGGTGTTG,0.4891 ± 0.0019
9,TCATTCAA,-0.266 ± 0.027
10,GGAGTGAA,0.226 ± 0.02
11,GTGTCGGA,0.394 ± 0.015
12,ACCGCACC,0.194 ± 0.045
13,AACCATAA,-0.117 ± 0.042
14,CTGAGGGA,-0.0382 ± 0.043
15,GCAGTTTA,0.0173 ± 0.11
16,GTACGCAA,-0.223 ± 0.03
17,CCCAAGTA,-0.0284 ± 0.033
18,CCCGGCAC,0.17 ± 0.026
19,AATCAAGG,-0.128 ± 0.019
20,CTAGCAGA,0.0492 ± 0.064
21,GGGACCTA,-0.174 ± 0.011
22,AGAGTCTA,-0.203 ± 0.064
23,CGCACACG,0.132 ± 0.0096
24,GTCAAGAA,-0.0436 ± 0.0075
25,ATTGTGAC,0.116 ± 0.039

row,Sequence,PBM E-score of 8-mer
1,ATTTAAAA,-0.169 ± 0.094
2,ATTTCTTG,-0.0691 ± 0.14
3,AAGTCCAT,-0.145 ± 0.019
4,GACGCAAC,0.114 ± 0.071
5,ATCCATCC,-0.273 ± 0.037
6,ACAAGGTC,0.1572 ± 0.00086
7,CATCATGC,-0.0796 ± 0.046
8,AAGCGGAA,-0.0005 ± 0.025
9,GTAAGCCA,-0.191 ± 0.041
10,GCACTTCA,0.271 ± 0.012
11,CATCACCG,-0.139 ± 0.039
12,CGGATCTC,-0.299 ± 0.013
13,TCTGAAAA,-0.253 ± 0.057
14,CATATAAA,-0.162 ± 0.014
15,GAGCCACC,-0.059 ± 0.073
16,ATGCAAAA,-0.235 ± 0.045
17,CCTCGAAC,0.109 ± 0.0078
18,CTCTCGGA,-0.177 ± 0.042
19,CATTATGC,-0.144 ± 0.0092
20,CCCATATA,-0.238 ± 0.036
21,GGGACACA,-0.0571 ± 0.031
22,AGTGAAAC,0.0272 ± 0.073
23,CCCATCCG,-0.108 ± 0.058
24,ATATTCTC,-0.0331 ± 0.008
25,CATATGAC,-0.0735 ± 0.011

row,Sequence,PBM E-score of 8-mer
1,GAGTTACA,0.0401 ± 0.024
2,AGTTCACG,0.32 ± 0.02
3,CCTGGCGC,0.29 ± 0.056
4,CCGAGAAG,-0.0729 ± 0.0046
5,CCGACAAA,0.103 ± 0.054
6,CGCTTCGC,0.279 ± 0.089
7,AAGTTCAC,0.159 ± 0.062
8,CAACTCCC,-0.0742 ± 0.13
9,CGGTGAGC,-0.0638 ± 0.075
10,ATAGTGTC,0.335 ± 0.011
11,AACCGAAC,-0.115 ± 0.033
12,CCGCTCGA,-0.219 ± 0.081
13,CGCAAGTA,0.16 ± 0.041
14,CCTGTCTA,-0.1 ± 0.035
15,AATGGACA,0.0325 ± 0.009
16,TGTTATAA,0.246 ± 0.034
17,GCGGAGAA,0.07473 ± 0.0005
18,ATTCACGG,0.226 ± 0.019
19,GTTAAGAA,-0.0589 ± 0.015

# From the supplement of paper PMC4166925
